# PubChem BioAssay AID743279 (National Center for Advancing Translational Sciences (NCATS), 2014)
# The campaign covered roughly 360,000 compounds. About 17,000 (4.7%) were called active. Inconclusive means that the source gave no clear call. Such entries were picked first, then a sample of the others. Cut-off read from the data, not from the text of the source: active = activity change below about -50%; inconclusive = mostly about -30% to -49%; inactive = weaker than that.
# Test: qHTS for Inhibitors of Inflammasome Signaling: IL-1-beta AlphaLISA Primary Screen
# Conditions: THP-1 LPS/ATP IL-1B secretion, 16 h; at 57.5 µM, stronger effect = lower value
# How it was run: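 Secreted IL-1B measured by AlphaLISA bead assay after 16 h compound exposure of THP-1 cells; compounds (final up to 57.5 uM) added 1 h before LPS (250 ng/mL) and ATP (1.25 mM) stimulation; lower signal means less secretion.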
# % is set by controls: 0 for no effect and ±100 for the full control effect.
row,Compound,activity change
1,CCOC(=O)CNC(c1ccccc1)c1cc(Br)ccc1NC(=O)CCN1CCOCC1 (stereo not given),inconclusive: -40.1%
2,COc1ccc(OC)c2[nH]c(=O)c(CCNC(=O)c3ccc(Br)o3)cc12,inconclusive: -44%
3,Cc1cccc(NC(=O)/C(C#N)=C/c2ccc(Cl)cc2)n1,inactive: -2.41%
4,CN(C)C(CNC(=O)CSc1nc2sc3c(c2c(=O)n1C)CCCC3)c1ccccc1 (stereo not given),inactive: -1.36%
5,CCCCOc1[nH]c2nc(-c3ccco3)n(Cc3ccco3)c(=N)c2c1C#N,active: -82.5%
6,O=C(NCc1ccc(Cl)cc1)c1cc(S(=O)(=O)N2CCCCC2)c[nH]1,inconclusive: -33%
7,CCOC(=O)c1cnc(SC)nc1Oc1cccc(NC(=O)c2ccc(C)cc2)c1,inactive: 24.9%
8,C/C(=N\NC(=S)NCC(C)(C)C)c1cc(F)cc(F)c1O,active: -110%
9,O=C(Nc1c(F)cccc1F)c1cnc(N2CCN(c3ccccn3)CC2)c2ccccc12,inconclusive: -43.5%
10,COc1ccc2c(CC(=O)N[C@@H](Cc3ccccc3)C(=O)O)cc(=O)oc2c1,inactive: 12.9%
11,CCc1nn(CC(=O)NCCCN2CCCC2=O)c(=O)c2cc3sccc3n12,inconclusive: -33.9%
12,Cc1nc2ccccc2n1-c1nc(-c2ccco2)cc(C(F)(F)F)n1,inconclusive: -35.8%
13,Cc1cccc(N2CCN(C(=O)c3cc(S(=O)(=O)N4CCOCC4)cn3C)CC2)c1C,inconclusive: -31%
14,CN(C(=O)c1ccnn1C)C1CCCN(Cc2ccccc2F)C1 (stereo not given),inactive: 21.8%
15,CC1(c2ccc3ccccc3c2)NC(=O)N(CC(=O)NCC(C)(C)N2CCOCC2)C1=O (stereo not given),inactive: -1.03%
16,COc1ccc(OC)c(/C=N/NC(=O)c2cc(-c3ccc(C)o3)nc3ccccc23)c1,inactive: -1.34%
17,C/C(=N\NC(=O)c1sccc1C)c1ccncc1,inconclusive: -32.6%
18,O=S1(=O)N=C(N(CCO)/N=C/C=C/c2ccccc2)c2ccccc21,inconclusive: -34%
19,Cc1ncsc1C(=O)Nc1nc2c(s1)CC(C)CC2 (stereo not given),inconclusive: -44.7%
20,O=C1C2C3C=CC(C4CC34)C2C(=O)N1/N=C/c1ccc(-c2ccc(F)cc2[N+](=O)[O-])o1 (stereo not given),inconclusive: -49.4%
21,O=C(CCc1ccc(S(=O)(=O)NC2CCCCC2)cc1)N(Cc1ccccc1)Cc1ccccc1,inconclusive: -36.3%
22,NS(=O)(=O)c1ccc(SCc2ccccc2)nc1,inconclusive: -39.2%

row,Compound,activity change
1,O=C(NC1CCCC1)c1nc(-c2ccco2)oc1-c1ccccc1,inactive: -3.74%
2,COc1ccc(C)cc1NC(=O)CSc1nnc(COc2ccc(Cl)cc2)n1Cc1ccco1,inconclusive: -34.9%
3,Cc1c(Nc2ccc3nonc3c2[N+](=O)[O-])c(=O)n(-c2ccccc2)n1C,inactive: 15.1%
4,Cc1ccc(/C=C(\C#N)C(=O)NC(C)c2ccccc2)o1 (stereo not given),inconclusive: -34.3%
5,CCOC(=O)Cn1nc(C)n(-c2ccccc2)c1=O,inactive: 0.649%
6,Cc1ccccc1NC(=O)c1sc2nc3c(c(-c4ccco4)c2c1N)CCCC3,inconclusive: -36.1%
7,CC1CCN(CCCCOc2cccc(Br)c2)CC1,inconclusive: -34.6%
8,COC(=O)c1ccc(CSc2nnnn2-c2ccccc2)o1,inactive: 3.54%
9,Cc1nc(C(=O)N2CCC(C)(C(=O)NS(=O)(=O)C3CC3)C2)c(C)o1 (stereo not given),inactive: 18.3%
10,O=C(COC(=O)c1cc([N+](=O)[O-])ccc1N1CCOCC1)c1ccc(OC(F)F)cc1OC(F)F,inconclusive: -31.3%
11,CC(C)N1CCC(N2CCN(Cc3ccc(-c4ccccc4Cl)o3)CC2CCO)CC1 (stereo not given),inconclusive: -42.9%
12,O=S(=O)(NC1c2cccc3cccc(c23)C1N1CCNCC1)c1ccccc1 (stereo not given),inconclusive: -32.4%
13,CCOC(=O)C1=C(COC(=O)c2c(OC)cccc2OC)NC(=O)NC1C (stereo not given),inconclusive: -46%
14,COC(=O)/C(=N/Nc1ccc(C)cc1)N1CCCc2ccccc21,inconclusive: -37.3%
15,COc1ccc(-c2cnc3c(NC(C)=O)cc(-c4cccc(C(=O)NCCO)c4)cn23)cc1OC,active: -54.6%
16,CC(C(=O)Nc1cccnc1)N1C(=O)C2C3C=CC(C3)C2C1=O (stereo not given),inactive: 8.88%
17,CN1CCN(S(=O)(=O)c2cccc(C(=O)Nc3sc4c(c3-c3nc5ccccc5[nH]3)CCCC4)c2)CC1,inactive: 42.1%
18,COc1cccc(N2CCN(C(=O)CCc3nnc4ccc(N5CCCC5)nn34)CC2)c1,inconclusive: -33.1%
19,CCOc1ccccc1C(=O)N[C@H](C(=O)OCc1cc(=O)oc2cc(C)ccc12)C(C)C,active: -55.3%
20,Cn1ncc(Cl)c1C(=O)NCc1ccc2c(c1)OCO2,inactive: 35.6%
21,CCOc1cc(CNCCO)cc(Br)c1OCc1ccccc1,active: -80%
22,COc1ccc(OC)c(NC(=O)Cn2cccc2)c1,inactive: -13.6%

row,Compound,activity change
1,Cc1cn([C@H]2C[C@H](O)[C@@H](CNC(=O)[C@H](N)C3CC3)O2)c(=O)[nH]c1=O,inactive: -5.28%
2,O=C(NC(NC(=S)Nc1cccc(Cl)c1)C(Cl)(Cl)Cl)OCc1ccccc1 (stereo not given),inconclusive: -38.8%
3,Nc1ccc(Nc2nc(-c3ccncc3)cs2)cc1,inconclusive: -34.7%
4,CCN(Cc1ccncc1)Cc1c(O)ccc2cc(Br)ccc12,inconclusive: -37.9%
5,Cn1c(Sc2ccc([N+](=O)[O-])cc2C(F)(F)F)nnc1-c1ccccc1,inconclusive: -42.6%
6,CC(C)c1ccc(-c2nnn(CCC#N)n2)cc1,inconclusive: -30%
7,COC(=O)N1CCCCC1c1cc(C(=O)N2CCOCC2)no1 (stereo not given),inactive: -15.7%
8,Cc1ccc(C)c(N2CCN(C(=O)CCc3nc(-c4ccccc4C(F)(F)F)no3)CC2)c1,inconclusive: -33.3%
9,COc1ccc(Cl)cc1NC(=O)CN(C)C(C)C(=O)NC(=O)NC1CCCCC1 (stereo not given),inconclusive: -44%
10,CN(C)S(=O)(=O)Oc1ccsc1C(=O)Nc1ccc(Br)cc1,inconclusive: -41.9%
11,O=C(NC12CC3CC(CC(C3)C1)C2)c1ccc([N+](=O)[O-])cc1,inconclusive: -36.7%
12,CCN1C(=O)/C(=C\c2nc3ccccc3c(=O)n2-c2ccccc2)c2ccccc21,inconclusive: -41.8%
13,COc1ccc(CC(N)c2csc(NC(=O)CCc3ccccc3)n2)cc1 (stereo not given),inconclusive: -47.7%
14,Cc1ccc(S(=O)(=O)Nc2ccc(O)c3cccnc23)cc1,inactive: 74.4%
15,C/C=C/C(=O)OCC(=O)Nc1cc(OC)c([N+](=O)[O-])cc1C,inconclusive: -49.3%
16,O=C(NCC1CCCO1)c1ccc(COc2ccc(Br)cc2)cc1 (stereo not given),inconclusive: -43.2%
17,CCOc1ccc(-c2nnc(N(CC)C(=O)C3CCC3)s2)cc1,inconclusive: -49.3%
18,COc1ccccc1C(CCN(Cc1cccs1)C(C)=O)c1ccco1 (stereo not given),active: -97.7%
19,Cc1ccccc1NC(=O)COC(=O)c1ccc(S(C)(=O)=O)c([N+](=O)[O-])c1,active: -95.8%
20,C[C@]12c3[nH]c4ccccc4c3CCN1C(=O)C(CC(=O)NCc1cccc(C(F)(F)F)c1)C[C@@H]2C(=O)N1CCOCC1 (stereo not given in full),inconclusive: -37.1%
21,CC1N(C)c2cc(NC(=O)c3cccs3)c(P(=O)(Nc3ccc([N+](=O)[O-])cc3)N3CCOCC3)cc2C1(C)C (stereo not given),active: -57.9%
22,Cc1nn(-c2ccccc2)c(N)c1Sc1ccc([N+](=O)[O-])cc1,inconclusive: -33.7%

row,Compound,activity change
1,Cc1cc(C(=O)N2CCc3c([nH]c4ccccc34)C2c2cccc(Cl)c2)nn1C (stereo not given),inconclusive: -44.4%
2,COc1ccc(NS(=O)(=O)c2ccc3oc(SCc4ccc(F)cc4)nc3c2)cc1,inconclusive: -31.3%
3,Cc1ccc(O)c(NC(=O)CCC2CCCCC2)c1,inconclusive: -41.7%
4,Cc1c([N+](=O)[O-])c([N+](=O)[O-])nn1CC(=O)N1CCOCC1,inconclusive: -42.3%
5,Cc1ccc(N(CC(O)Cn2nc(C)cc2C)S(=O)(=O)c2ccc3ccccc3c2)cc1 (stereo not given),inconclusive: -41.7%
6,COc1cc(/C=C2/SC(=S)N(CCC(=O)Nc3ccc(C(=O)O)cc3)C2=O)cc(OC)c1OC,inconclusive: -37%
7,CC(=O)c1ccc2oc3ccccc3c(=O)c2c1,inconclusive: -33.3%
8,O=C(Nc1ccc2c(c1)OCCO2)C1CCCN(S(=O)(=O)c2cnc[nH]2)C1 (stereo not given),inactive: -4.66%
9,Cc1nn(-c2ccccc2)c(C)c1NC(=O)COC(=O)c1ccccc1,inactive: 16.9%
10,O=C(NC1CCN(Cc2ccccc2)CC1)c1cccc(OC(F)F)c1,inconclusive: -47%
11,COc1ccc(Cl)cc1NC(=S)NCc1cccs1,inactive: 23.3%
12,CCCCCCCCN1C(=O)[C@H](CC(=O)NCCC(C)C)C[C@@]2(C(=O)OCC)CCCC=C12,inconclusive: -42.5%
13,Cc1cc(C)n2nc(C(=O)OCC(=O)Nc3ccc(C)c(F)c3)nc2n1,inconclusive: -30.3%
14,Cc1cc(C)cc(CN2CCC(Oc3ccc(C(=O)N4CCCC4)cc3)CC2)c1,inconclusive: -44.9%
15,CCOc1ccc2oc(C(=O)OC(C(=O)NC(N)=O)C(C)C)c(C)c2c1 (stereo not given),inactive: -11.9%
16,COc1ccc(CCN2CC(C(=O)NCc3cnn(C(C)C)c3)CCC2=O)cc1 (stereo not given),inactive: 16.1%
17,COc1ccc(Nc2cc(C(=O)NCCCN3CCN(C)CC3)c3ccccc3n2)cc1OC,inconclusive: -39.1%
18,COc1ccc(Cl)cc1NC(=O)Cn1c(C)csc1=O,inactive: 0%
19,CC(C)C(=O)N1CCN(c2ccccc2NC(=O)c2cccc(Cl)c2)CC1,inconclusive: -45.3%
